{
  "source": "the supplement of paper PMC12067230",
  "note": "The data scatter; read single values as rough.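 Further: [psi-pin-] Saccharomyces cerevisiae expressing SupN fusions, induced by 100 µM Cu2SO4, selected 7 d at 30 °C without adenine and uracil, scored by deep sequencing of output versus input.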",
  "data": [
    {"test": "amyloid nucleation score relative to library mode (yeast Sup35 reporter selection) (log enrichment difference); higher = more amyloid nucleation", "details": "random library (experiment): 1;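 active = nucleation score significantly above 0 at FDR 0.05; inactive = not significantly above 0 or absent from output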", "values": [
      {"sequence": "EASNCFAIRHFENKFAVETLICVTGLLGAMVRWK", "amyloid nucleation score": "inactive"},
      {"sequence": "EASNCFAIRHFENKFAVETLICVTGSTHSEMHTG", "amyloid nucleation score": "inactive"},
      {"sequence": "EASNCFAIRHFENKFAVETLICVTGT", "amyloid nucleation score": "inactive"},
      {"sequence": "EASNCFAIRHFENKFAVETLICVTGTMSTRRRWC", "amyloid nucleation score": 4.46},
      {"sequence": "EASNCFAIRHFENKFAVETLICVTGYSWLYRWVH", "amyloid nucleation score": -0.137},
      {"sequence": "EASNCFAIRHFENKFAVETLICVTIMFTLFVKGG", "amyloid nucleation score": "inactive"},
      {"sequence": "EASNCFAIRHFENKFAVETLICVTK", "amyloid nucleation score": 2.7},
      {"sequence": "EASNCFAIRHFENKFAVETLICVTLGLILLWCLG", "amyloid nucleation score": 4.9},
      {"sequence": "EASNCFAIRHFENKFAVETLICVTLYEQDLRACG", "amyloid nucleation score": "inactive"},
      {"sequence": "EASNCFAIRHFENKFAVETLICVTLYWSPCDADD", "amyloid nucleation score": 0.494},
      {"sequence": "EASNCFAIRHFENKFAVETLICVTMMRSKGDGNW", "amyloid nucleation score": 4.67},
      {"sequence": "EASNCFAIRHFENKFAVETLICVTMWG", "amyloid nucleation score": "inactive"},
      {"sequence": "EASNCFAIRHFENKFAVETLICVTPRLGRIRHAG", "amyloid nucleation score": "inactive"},
      {"sequence": "EASNCFAIRHFENKFAVETLICVTPSVRLSWAWA", "amyloid nucleation score": "inactive"},
      {"sequence": "EASNCFAIRHFENKFAVETLICVTRAFHGMPRRG", "amyloid nucleation score": "inactive"},
      {"sequence": "EASNCFAIRHFENKFAVETLICVTRCWGKRVCSC", "amyloid nucleation score": "inactive"},
      {"sequence": "EASNCFAIRHFENKFAVETLICVTS", "amyloid nucleation score": "inactive"},
      {"sequence": "EASNCFAIRHFENKFAVETLICVTSASWAVRLKV", "amyloid nucleation score": "inactive"},
      {"sequence": "EASNCFAIRHFENKFAVETLICVTVCRVSARRGR", "amyloid nucleation score": "inactive"}
    ]},
    {"test": "amyloid nucleation score relative to library mode (yeast Sup35 reporter selection) (log enrichment difference); higher = more amyloid nucleation", "details": "random library (experiment): 2", "values": [
      {"sequence": "EASNCFAIRHFENKFAVETLICVTHICRTQLWSS", "amyloid nucleation score": 3.4},
      {"sequence": "EASNCFAIRHFENKFAVETLICVTKRDI", "amyloid nucleation score": -0.174},
      {"sequence": "EASNCFAIRHFENKFAVETLICVTLC", "amyloid nucleation score": 5.66},
      {"sequence": "EASNCFAIRHFENKFAVETLICVTLYSFK", "amyloid nucleation score": 4.69},
      {"sequence": "EASNCFAIRHFENKFAVETLICVTMVFFS", "amyloid nucleation score": "inactive"},
      {"sequence": "EASNCFAIRHFENKFAVETLICVTMVIGSFTRPI", "amyloid nucleation score": "inactive"},
      {"sequence": "EASNCFAIRHFENKFAVETLICVTNLSLRQDEVL", "amyloid nucleation score": 3.12},
      {"sequence": "EASNCFAIRHFENKFAVETLICVTNVVSQETMDT", "amyloid nucleation score": 5.26},
      {"sequence": "EASNCFAIRHFENKFAVETLICVTQVCLFTLRAR", "amyloid nucleation score": "inactive"},
      {"sequence": "EASNCFAIRHFENKFAVETLICVTRC", "amyloid nucleation score": "inactive"},
      {"sequence": "EASNCFAIRHFENKFAVETLICVTRV", "amyloid nucleation score": "inactive"},
      {"sequence": "EASNCFAIRHFENKFAVETLICVTSSRIELELCN", "amyloid nucleation score": "inactive"},
      {"sequence": "EASNCFAIRHFENKFAVETLICVTTFLN", "amyloid nucleation score": "inactive"},
      {"sequence": "EASNCFAIRHFENKFAVETLICVTVAL", "amyloid nucleation score": "inactive"},
      {"sequence": "EASNCFAIRHFENKFAVETLICVTVEIH", "amyloid nucleation score": "inactive"}
    ]},
    {"test": "amyloid nucleation score relative to library mode (yeast Sup35 reporter selection) (log enrichment difference); higher = more amyloid nucleation; sequences are the first 22 residues of the Bri2 peptide extended by up to 12 random residues", "details": "random library (experiment): 3", "values": [
      {"sequence": "EASNCFAIRHFENKFAVETLICVTGMFKVEASTW", "amyloid nucleation score": "inactive"},
      {"sequence": "EASNCFAIRHFENKFAVETLICVTHMPYTMYLSG", "amyloid nucleation score": 1.16},
      {"sequence": "EASNCFAIRHFENKFAVETLICVTHVHVYDYWLL", "amyloid nucleation score": "inactive"},
      {"sequence": "EASNCFAIRHFENKFAVETLICVTLMVVCDQMSG", "amyloid nucleation score": 2.8},
      {"sequence": "EASNCFAIRHFENKFAVETLICVTLPCGIGLALM", "amyloid nucleation score": "inactive"},
      {"sequence": "EASNCFAIRHFENKFAVETLICVTNLQKLGAGDG", "amyloid nucleation score": 3.67},
      {"sequence": "EASNCFAIRHFENKFAVETLICVTPDVPQQRRVT", "amyloid nucleation score": 3.07},
      {"sequence": "EASNCFAIRHFENKFAVETLICVTPRFVQAALLR", "amyloid nucleation score": "inactive"},
      {"sequence": "EASNCFAIRHFENKFAVETLICVTPRRC", "amyloid nucleation score": "inactive"},
      {"sequence": "EASNCFAIRHFENKFAVETLICVTQEWLCANSGA", "amyloid nucleation score": 6.54},
      {"sequence": "EASNCFAIRHFENKFAVETLICVTR", "amyloid nucleation score": "inactive"},
      {"sequence": "EASNCFAIRHFENKFAVETLICVTRCVVAQRNLT", "amyloid nucleation score": "inactive"},
      {"sequence": "EASNCFAIRHFENKFAVETLICVTRSVLFQLSVV", "amyloid nucleation score": "inactive"},
      {"sequence": "EASNCFAIRHFENKFAVETLICVTTDSGVSIMYN", "amyloid nucleation score": "inactive"}
    ]}
  ]
}
